# Test results as given in PubChem BioAssay (Tox21).
# Where “and” joins values, the source holds several entries; their conditions need not be identical. Identical values can stand only once. The inconclusive results got no clear call from the source; some entries with a clear call stand among them for comparison. For some assays here: A potency beside an inconclusive call is a rough fit, not a confirmed value. Calls of active or inactive are those of the source. Calls come from the whole dose curve; as a rule, active = well fitted curve in the direction sought with a large enough effect in the repeat runs; inconclusive = weak or mixed curves; inactive = no such curve, though single readings can be large; an effect the other way counts as inactive or inconclusive.
# Assays:
# [1] = Human pregnane X receptor (PXR) small molecule agonists, qHTS cell viability counter screen (AID 1346977); note: nearly all actives have a fitted effect of over 50% in size
# Procedure, shortened: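 Readout is CellTiter-Fluor fluorescence from PXR-Luc HepG2 cells. Plated cells rested 5hr, then were treated with compounds for 24hr at 37C and 5% CO2, with reagent present during the last hour.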
# [2] = Caspase-3/7 induction in CHO-K1 cells by small molecules, qHTS cell viability counter screen (AID 1346979); note: nearly all actives have a fitted effect of over 35% in size
# Procedure, shortened: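 To flag cytotoxic compounds, treated CHO-K1 wild-type cells were given CellTiter-Fluor at 16hr and read fluorescently after 1hr at 37C; the caspase-3/7 luminescence was measured in these same wells.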
# [3] = Caspase-3/7 induction in HepG2 cells by small molecules, qHTS cell viability counter screen (AID 1346981); note: nearly all actives have a fitted effect of over 30% in size
# Procedure, shortened: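 The parent HepG2 line is plated at 2,000 cells per well and rested 5 hr before compound pinning from DMSO stocks. Following a 16-hr treatment at 37 C, a fluorogenic live-cell substrate (CellTiter-Fluor) reports viability after 1 hr.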
# [4] = target: Nuclear receptor subfamily 1 group I member 2 (Homo sapiens) (UniProt O75469); experiment: Human pregnane X receptor (PXR) activation by small molecules, qHTS assay (AID 1346985); note: nearly all actives have a fitted effect of over 40% in size
# Chain of UniProt O75469 (O75469 whole entry, looked up): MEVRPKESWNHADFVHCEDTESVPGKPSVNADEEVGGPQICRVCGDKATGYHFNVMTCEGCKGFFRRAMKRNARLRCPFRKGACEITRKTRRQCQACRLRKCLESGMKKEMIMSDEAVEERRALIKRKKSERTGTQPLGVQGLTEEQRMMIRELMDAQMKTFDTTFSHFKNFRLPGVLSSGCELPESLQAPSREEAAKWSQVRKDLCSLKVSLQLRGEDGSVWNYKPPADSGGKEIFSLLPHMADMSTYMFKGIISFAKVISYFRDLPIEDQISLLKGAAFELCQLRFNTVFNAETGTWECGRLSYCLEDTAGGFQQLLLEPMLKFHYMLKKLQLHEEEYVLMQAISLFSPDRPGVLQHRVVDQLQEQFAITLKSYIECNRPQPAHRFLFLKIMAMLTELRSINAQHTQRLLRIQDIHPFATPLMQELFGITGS
# Procedure, shortened: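 DPX-2 cells (HepG2 co-transfected with a PXR response element and a CYP3A4-promoter luciferase construct) were seeded at 2,000 per well, rested 5 hr at 37C, then exposed to DMSO-dissolved compounds for 24 hr. Activation was read as luciferase luminescence.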
# [5] = target: Voltage-gated inwardly rectifying potassium channel KCNH2 (Homo sapiens) (UniProt Q12809); experiment: Human Ether-a-go-go-Related Gene (hERG) channel small molecule antagonists: fluorescence cell-based qHTS assay (AID 1671200); note: nearly all actives have a fitted effect of over 50% in size
# Chain of UniProt Q12809 (Q12809 whole entry, looked up): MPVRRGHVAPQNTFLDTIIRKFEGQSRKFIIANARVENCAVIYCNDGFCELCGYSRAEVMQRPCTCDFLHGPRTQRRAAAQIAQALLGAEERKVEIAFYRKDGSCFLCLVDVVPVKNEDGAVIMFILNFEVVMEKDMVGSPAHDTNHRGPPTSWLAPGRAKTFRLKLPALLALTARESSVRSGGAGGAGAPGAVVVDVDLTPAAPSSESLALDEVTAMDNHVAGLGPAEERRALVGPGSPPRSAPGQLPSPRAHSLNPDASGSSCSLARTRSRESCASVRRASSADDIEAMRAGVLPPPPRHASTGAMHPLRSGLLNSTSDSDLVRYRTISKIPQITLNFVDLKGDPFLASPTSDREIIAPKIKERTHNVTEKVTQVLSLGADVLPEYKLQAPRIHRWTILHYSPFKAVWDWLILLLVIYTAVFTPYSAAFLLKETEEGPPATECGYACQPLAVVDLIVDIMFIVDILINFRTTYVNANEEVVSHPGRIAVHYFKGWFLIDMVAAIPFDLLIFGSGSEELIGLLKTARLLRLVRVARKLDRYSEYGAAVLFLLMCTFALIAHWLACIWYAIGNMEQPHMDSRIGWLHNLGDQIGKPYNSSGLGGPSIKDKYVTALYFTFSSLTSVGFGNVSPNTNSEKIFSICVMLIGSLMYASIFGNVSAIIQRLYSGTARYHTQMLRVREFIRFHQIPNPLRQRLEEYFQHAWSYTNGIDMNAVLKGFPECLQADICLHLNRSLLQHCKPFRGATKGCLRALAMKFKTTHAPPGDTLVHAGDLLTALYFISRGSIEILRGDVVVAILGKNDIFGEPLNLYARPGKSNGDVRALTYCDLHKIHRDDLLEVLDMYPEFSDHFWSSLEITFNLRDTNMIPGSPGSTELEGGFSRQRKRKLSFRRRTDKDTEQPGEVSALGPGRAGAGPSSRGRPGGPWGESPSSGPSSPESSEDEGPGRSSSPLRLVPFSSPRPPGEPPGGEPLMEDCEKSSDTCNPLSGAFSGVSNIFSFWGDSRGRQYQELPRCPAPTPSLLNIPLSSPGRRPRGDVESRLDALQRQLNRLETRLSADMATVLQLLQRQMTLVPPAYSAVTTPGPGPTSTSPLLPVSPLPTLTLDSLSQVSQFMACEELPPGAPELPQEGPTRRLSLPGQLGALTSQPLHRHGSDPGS
# Procedure, shortened: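 Measured: Tl+ flux via fluorescence (480/540 nm) in hERG-expressing U2OS cells after 1 h dye loading at room temperature.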
# [6] = target: Cytochrome P450 3A4 (Homo sapiens) (UniProt P08684); experiment: Cytochrome P450 Family 3 Subfamily A Member 4 (CYP3A4) small molecule antagonists: luciferase reporter qHTS assay (AID 1671201); note: nearly all actives have a fitted effect of over 50% in size
# Chain of UniProt P08684 (P08684 whole entry, looked up): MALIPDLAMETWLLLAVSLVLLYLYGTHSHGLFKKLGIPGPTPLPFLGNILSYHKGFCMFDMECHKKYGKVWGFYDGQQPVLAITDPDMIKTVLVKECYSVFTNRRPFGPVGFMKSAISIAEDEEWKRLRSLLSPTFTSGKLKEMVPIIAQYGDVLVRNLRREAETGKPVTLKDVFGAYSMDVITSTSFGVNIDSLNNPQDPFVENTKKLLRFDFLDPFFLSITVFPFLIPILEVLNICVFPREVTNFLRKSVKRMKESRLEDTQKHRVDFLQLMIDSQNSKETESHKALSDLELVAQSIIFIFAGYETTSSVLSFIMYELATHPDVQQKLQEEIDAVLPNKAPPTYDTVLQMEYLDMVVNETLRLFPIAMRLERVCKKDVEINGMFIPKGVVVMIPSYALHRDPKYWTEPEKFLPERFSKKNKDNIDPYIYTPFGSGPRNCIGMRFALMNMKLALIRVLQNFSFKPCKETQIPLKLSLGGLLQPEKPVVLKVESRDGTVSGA
# Procedure, shortened: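 Setup: enzyme-substrate mix, compound pin transfer, 10 min RT. Reaction: NADPH regeneration solution, 1 h RT. Readout: detection reagent stops turnover, luminescence measured after 20 min, expressed in relative luminescence units.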
# [7] = target: Nuclear receptor subfamily 1 group I member 2 (Homo sapiens) (UniProt O75469); experiment: Human pregnane X receptor (PXR) small molecule agonists, qHTS assay (AID 1346982); note: nearly all actives have a fitted effect of over 35% in size
# Procedure, shortened: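 After plating in 5% charcoal-stripped FBS and a 5 hr rest, PXR-Luc HepG2 cells received compounds in DMSO. Following 24 hr at 37 C, ONE-Glo was added and light output read.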
# [8] = target: Cytochrome P450 1A2 (Homo sapiens) (UniProt P05177); experiment: Cytochrome P450 Family 1 Subfamily A Member 2 (CYP1A2) small molecule antagonists: luciferase reporter qHTS assay (AID 1671199); note: nearly all actives have a fitted effect of over 50% in size
# Chain of UniProt P05177 (P05177 whole entry, looked up): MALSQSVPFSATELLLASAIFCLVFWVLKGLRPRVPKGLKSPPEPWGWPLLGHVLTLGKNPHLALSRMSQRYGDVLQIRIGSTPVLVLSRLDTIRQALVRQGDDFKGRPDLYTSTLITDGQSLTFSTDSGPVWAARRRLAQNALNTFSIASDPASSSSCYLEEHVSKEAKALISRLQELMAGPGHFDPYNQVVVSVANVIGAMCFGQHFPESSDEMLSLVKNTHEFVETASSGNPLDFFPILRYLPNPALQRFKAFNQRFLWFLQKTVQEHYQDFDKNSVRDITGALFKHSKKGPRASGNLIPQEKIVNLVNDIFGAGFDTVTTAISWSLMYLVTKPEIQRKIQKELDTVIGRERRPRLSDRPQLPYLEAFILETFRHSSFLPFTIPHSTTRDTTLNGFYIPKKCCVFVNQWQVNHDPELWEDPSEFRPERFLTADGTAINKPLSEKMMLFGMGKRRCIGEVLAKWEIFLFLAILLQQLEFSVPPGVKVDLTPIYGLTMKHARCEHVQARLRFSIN
# Procedure, shortened: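 Quantitative high-throughput format using the P450-Glo CYP1A2 system. Reaction initiated by NADPH regeneration solution, 1 h at room temperature, then stopped with detection reagent; luminescence measured 20 min later.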
# [9] = Caspase-3/7 induction in CHO-K1 cells by small molecules, qHTS assay (AID 1346980); note: nearly all actives have a fitted effect of over 15% in size
# Procedure, shortened: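 Wild-type CHO-K1 cells exposed to compounds for 17hr at 37 C, 5% CO2. Caspase-3/7 activity then measured by Caspase-Glo 3/7 luminescence after 30min at room temperature.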
# [10] = target: Cytochrome P450 2D6 (Homo sapiens) (UniProt P10635); experiment: Cytochrome P450 Family 2 Subfamily D Member 6 (CYP2D6) small molecule antagonists: luciferase reporter qHTS assay (AID 1671196); note: nearly all actives have a fitted effect of over 50% in size
# Chain of UniProt P10635 (P10635 whole entry, looked up): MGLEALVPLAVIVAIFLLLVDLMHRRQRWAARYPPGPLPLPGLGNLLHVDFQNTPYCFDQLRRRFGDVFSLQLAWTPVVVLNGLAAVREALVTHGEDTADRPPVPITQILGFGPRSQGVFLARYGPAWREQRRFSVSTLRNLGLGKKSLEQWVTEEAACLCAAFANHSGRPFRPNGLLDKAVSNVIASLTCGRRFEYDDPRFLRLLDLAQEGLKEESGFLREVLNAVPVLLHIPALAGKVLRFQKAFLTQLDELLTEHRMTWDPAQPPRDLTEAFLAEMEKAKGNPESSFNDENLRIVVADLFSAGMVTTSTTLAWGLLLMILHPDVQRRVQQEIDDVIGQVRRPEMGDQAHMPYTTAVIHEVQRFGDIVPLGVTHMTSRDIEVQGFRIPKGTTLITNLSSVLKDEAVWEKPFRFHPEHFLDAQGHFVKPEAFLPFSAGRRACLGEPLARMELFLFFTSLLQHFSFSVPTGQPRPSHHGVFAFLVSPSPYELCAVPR
# Procedure, shortened: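 Quantitative HTS of Tox21 chemicals against CYP2D6 using a luminescent proluciferin substrate. After NADPH addition, 1 h room-temperature reaction; luminescence recorded 20 min post detection reagent.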
# Potency is the fitted concentration of half-maximal effect; tags give direction and shape of the fitted curve.
smiles,measurement,setting,value
C=CCN1C[C@H](C(=O)N(CCCN(C)C)C(=O)NCC)C[C@@H]2c3cccc4[nH]cc(c34)C[C@H]21,Potency,[1],"inconclusive: 23.7 µM [cytotoxic, partial curve]"
same,Potency,[2],inconclusive: 33.5 µM [cytotoxic]
same,Potency,[3],"inconclusive: 42.2 µM [cytotoxic, partial curve, poor fit]"
same,Potency,[4],active: 15.8 µM
same,Potency,[5],"inconclusive: 26.8 µM [inhibitor, single point]"
same,Potency,[6],active: 0.977 µM
O=C(Nc1ccc(S(=O)(=O)N2CCOCC2)cc1)c1cc(Cl)ccc1NS(=O)(=O)c1ccc(Cl)s1,Potency,[1],inconclusive: 33.5 µM [cytotoxic]
same,Potency,[2],"inconclusive: 33.5 µM [cytotoxic, single point]"
same,Potency,[7],active: 9.44 µM
same,Potency,[8],inactive
C[C@@]12C(=O)OC(=O)[C@]1(C)C1CCC2O1,Potency,[1],active: 0.266 µM
same,Potency,[9],active: 23.7 µM
Oc1ccc(-c2ccc(O)cc2)cc1,Potency,[1],"inconclusive: 15.4 µM [cytotoxic, partial curve, poor fit]"
same,Potency,[2],"inconclusive: 61.5 µM [cytotoxic, partial curve]"
same,Potency,[3],"inconclusive: 61.5 µM [cytotoxic, partial curve, poor fit]"
same,Potency,[10],"inconclusive: 80.2 µM [inhibitor, partial curve, poor fit]"
same,Potency,[6],inconclusive: 71.4 µM [inhibitor]
C#C[C@]1(O)CC[C@H]2[C@@H]3CCC4=Cc5oncc5C[C@]4(C)[C@H]3CC[C@@]21C,Potency,[1],"inconclusive: 68.6 µM [cytotoxic, single point]"
same,Potency,[2],active: 43.3 µM and active: 26.6 µM
same,Potency,[8],"inconclusive: 31.7 µM [inhibitor, partial curve]"
